# Data: a collection of fitness landscapes (doi:10.1126/science.1257360)
# The list shows a part of the results.
# B1: PhoQ; a variant is named by its letters at X, in order, P23837 (parent)
# chain: MKKLLRLFFPLSLRVRFLLATAAVVLVLSLAYGMVALIGYSVSFDKTTFRLLRGESNLFYTLAKWENNKLHVELPENIDKQSPTMTLIYDENGQLLWAQRDVPWLMKMIQPDWLKSNGFHEIEADVNDTSLLLSGDHSIQQQLQEVREDDDDAEMTHSVAVNVYPATSRMPKLTIVVVDTIPVELKSSYMVWSWFIYVLSANLLLVIPLLWVAAWWSLRPIEALAKEVRELEEHNRELLNPATTRELTSLVRNLNRLLKSERERYDKYRTTLTDLTHSLKTPLXXLQXXLRSLRSEKMSVSDAEPVMLEQISRISQQIGYYLHRASMRGGTLLSRELHPVAPLLDNLTSALNKVYQRKGVNISLDISPEISFVGEQNDFVEVMGNVLDNACKYCLEFVEISARQTDEHLYIVVEDDGPGIPLSKREVIFDRGQRVDTLRPGQGVGLAVAREITEQYEGKIVAGESMLGGARMEVIFGRQHSAPKDE
# Variants of: B1
# Assay: enrichment ratio after two sorts for PhoP signalling (ratio (wild type AVST 3.29)); higher = more functional
# Conditions: with PhoP (E. coli)
row,Variant,enrichment ratio
1,WLCH,≤ 0.25
2,NMMF,≤ 0.25
3,PQQP,≤ 0.25
4,TLQH,21.1
5,YNYS,≤ 0.25
6,LQCN,≤ 0.25
7,FCLL,10.7
8,TMWS,≤ 0.25
9,STQP,≤ 0.25
10,GHYL,0.671
11,TSPC,≤ 0.25
12,VKNM,≤ 0.25
13,RSQS,≤ 0.25
14,KPNC,≤ 0.25
15,DHLT,≤ 0.25
16,MPCY,≤ 0.25
17,HPFS,≤ 0.25
18,EPTK,≤ 0.25
19,LVVS,≤ 0.25
20,IISS,≤ 0.25
21,PVLP,≤ 0.25
22,VNSP,≤ 0.25
23,SCAH,8.14
24,SNLY,5.35

row,Variant,enrichment ratio
1,AFAC,≤ 0.25
2,LQDD,≤ 0.25
3,WMLL,≤ 0.25
4,TWAE,≤ 0.25
5,RYPP,≤ 0.25
6,AYMQ,0.322
7,ESKH,≤ 0.25
8,ASWS,≤ 0.25
9,IMTS,≤ 0.25
10,MGVA,≤ 0.25
11,DPVC,≤ 0.25
12,QWNG,≤ 0.25
13,SHAS,≤ 0.25
14,GTRL,≤ 0.25
15,IRMV,≤ 0.25
16,YEQF,≤ 0.25
17,LYNY,≤ 0.25
18,AHKV,≤ 0.25
19,VDSF,≤ 0.25
20,PTPR,≤ 0.25
21,AMWR,≤ 0.25
22,ELGR,≤ 0.25
23,SFYK,≤ 0.25
24,QTYL,12.8

row,Variant,enrichment ratio
1,SMAS,11.6
2,MVWK,≤ 0.25
3,MHMT,≤ 0.25
4,PVSV,≤ 0.25
5,SFPD,≤ 0.25
6,DAWI,≤ 0.25
7,DKPG,≤ 0.25
8,WYMN,≤ 0.25
9,TQMS,4.53
10,HYEM,≤ 0.25
11,WCVF,≤ 0.25
12,AQTH,≤ 0.25
13,EHFG,≤ 0.25
14,GLCL,13.5
15,SGSW,≤ 0.25
16,TDKA,≤ 0.25
17,RPSM,≤ 0.25
18,KRVF,≤ 0.25
19,SYFV,≤ 0.25
20,SRWC,≤ 0.25
21,LEEP,≤ 0.25
22,KMIK,≤ 0.25
23,FNGY,≤ 0.25
24,PPQW,≤ 0.25

row,Variant,enrichment ratio
1,DCGA,≤ 0.25
2,PQCS,≤ 0.25
3,ALVV,0.91
4,EGLS,≤ 0.25
5,KVVQ,≤ 0.25
6,KENG,≤ 0.25
7,GRWT,≤ 0.25
8,WQER,≤ 0.25
9,GQYS,≤ 0.25
10,NLKW,≤ 0.25
11,HYNC,≤ 0.25
12,RNMK,≤ 0.25
13,WEFR,≤ 0.25
14,FNQL,≤ 0.25
15,ELAQ,≤ 0.25
16,FLPS,≤ 0.25
17,LYKL,≤ 0.25
18,PNQI,≤ 0.25
19,MMLL,1.58
20,GQWG,≤ 0.25
21,PWNL,≤ 0.25
22,FKLY,≤ 0.25
23,LQCE,≤ 0.25
24,RCCY,≤ 0.25

row,Variant,enrichment ratio
1,LYYI,≤ 0.25
2,ERGG,≤ 0.25
3,GRVH,≤ 0.25
4,VPCG,≤ 0.25
5,KYLE,≤ 0.25
6,HQRN,≤ 0.25
7,YTID,≤ 0.25
8,LTQF,≤ 0.25
9,HQSW,≤ 0.25
10,EFHS,≤ 0.25
11,ESGG,≤ 0.25
12,NDYT,≤ 0.25
13,KQRA,≤ 0.25
14,TSRN,≤ 0.25
15,APNE,≤ 0.25
16,FMPL,≤ 0.25
17,PIND,≤ 0.25
18,KCMG,≤ 0.25
19,WEIH,≤ 0.25
20,IPHY,≤ 0.25
21,IISW,≤ 0.25
22,PATG,≤ 0.25
23,SLYN,≤ 0.25
24,VIFP,≤ 0.25

row,Variant,enrichment ratio
1,VNQM,≤ 0.25
2,YSEF,≤ 0.25
3,DVDC,≤ 0.25
4,PDNM,≤ 0.25
5,AKQD,≤ 0.25
6,PDQC,≤ 0.25
7,RGQT,≤ 0.25
8,NCQP,≤ 0.25
9,AKWC,≤ 0.25
10,LRPG,≤ 0.25
11,MQWD,≤ 0.25
12,TAAP,≤ 0.25
13,LNHG,≤ 0.25
14,NRNV,≤ 0.25
15,GWKK,≤ 0.25
16,SAKL,≤ 0.25
17,KHEI,≤ 0.25
18,TMDV,≤ 0.25
19,QPIV,≤ 0.25
20,MLSW,≤ 0.25
21,EMAK,≤ 0.25
22,FFMN,≤ 0.25
23,RGNL,≤ 0.25
24,TYGY,≤ 0.25

row,Variant,enrichment ratio
1,IGTI,≤ 0.25
2,TAIL,≤ 0.25
3,RGRI,≤ 0.25
4,GGTQ,≤ 0.25
5,WFKV,≤ 0.25
6,KANP,≤ 0.25
7,SPSM,≤ 0.25
8,VVCC,≤ 0.25
9,VTYQ,≤ 0.25
10,YICF,1.32
11,WCWG,≤ 0.25
12,ANLV,14.1
13,TGSN,8.1
14,EPVN,≤ 0.25
15,PNGM,≤ 0.25
16,PWPR,≤ 0.25
17,NIYI,≤ 0.25
18,FHLP,≤ 0.25
19,SHVW,≤ 0.25
20,SVTY,7.86
21,MGYW,≤ 0.25
22,PYTD,≤ 0.25
23,PSSI,≤ 0.25
24,NGAK,≤ 0.25

row,Variant,enrichment ratio
1,VHMM,≤ 0.25
2,SFDC,≤ 0.25
3,DGWN,≤ 0.25
4,TYVP,≤ 0.25
5,YRMP,0.643
6,SPNS,≤ 0.25
7,NLQF,≤ 0.25
8,PQID,≤ 0.25
9,NNLF,≤ 0.25
10,SYAV,≤ 0.25
11,GWHP,≤ 0.25
12,KFYG,≤ 0.25
13,KHSE,≤ 0.25
14,VDSY,≤ 0.25
15,EHQQ,≤ 0.25
16,NIIQ,≤ 0.25
17,NVAP,≤ 0.25
18,HKMQ,≤ 0.25
19,MEAF,≤ 0.25
20,FHHM,≤ 0.25
21,WHHL,≤ 0.25
22,ASHW,≤ 0.25
23,VMTM,≤ 0.25
24,HQPT,≤ 0.25

row,Variant,enrichment ratio
1,FHAW,≤ 0.25
2,FEMK,≤ 0.25
3,NWPW,≤ 0.25
4,QCKN,≤ 0.25
5,SVPH,≤ 0.25
6,MIYL,1.16
7,LIGG,≤ 0.25
8,IMIV,≤ 0.25
9,LQTL,≤ 0.25
10,SQDW,≤ 0.25
11,RKHD,≤ 0.25
12,LIND,≤ 0.25
13,IHVR,≤ 0.25
14,YPRI,≤ 0.25
15,LQAE,≤ 0.25
16,DWDS,≤ 0.25
17,FCDD,≤ 0.25
18,FEID,≤ 0.25
19,IDCS,≤ 0.25
20,LHWL,≤ 0.25
21,MPVS,≤ 0.25
22,IYSP,≤ 0.25
23,TVPT,≤ 0.25
24,GDSS,≤ 0.25

row,Variant,enrichment ratio
1,IVMP,≤ 0.25
2,DAQN,≤ 0.25
3,PMCY,≤ 0.25
4,YHPI,≤ 0.25
5,EKLV,≤ 0.25
6,NGTH,≤ 0.25
7,NCPF,≤ 0.25
8,HYSD,≤ 0.25
9,FMSK,≤ 0.25
10,IWSV,≤ 0.25
11,RWYK,≤ 0.25
12,YYAQ,≤ 0.25
13,SPSS,≤ 0.25
14,IWCR,≤ 0.25
15,YEQC,≤ 0.25
16,SHAI,≤ 0.25
17,EWLM,≤ 0.25
18,GTEC,≤ 0.25
19,STEW,≤ 0.25
20,GQCV,5.95
21,RTHY,≤ 0.25
22,HATV,≤ 0.25
23,IPPF,≤ 0.25
24,FQFK,≤ 0.25

row,Variant,enrichment ratio
1,SLFC,≤ 0.25
2,IECL,≤ 0.25
3,SMFM,≤ 0.25
4,PSNC,≤ 0.25
5,MRMK,≤ 0.25
6,LVGG,≤ 0.25
7,FDIF,≤ 0.25
8,SGFC,≤ 0.25
9,PVLY,≤ 0.25
10,KTEF,≤ 0.25
11,ICAH,≤ 0.25
12,IFTP,≤ 0.25
13,VETR,≤ 0.25
14,DRNC,≤ 0.25
15,WGQP,≤ 0.25
16,HRWQ,≤ 0.25
17,MILD,≤ 0.25
18,TCKM,≤ 0.25
19,SRRS,≤ 0.25
20,ADLT,11.3
21,TTRQ,≤ 0.25
22,EMEN,≤ 0.25
23,SGIA,10.4
24,PQTR,≤ 0.25

row,Variant,enrichment ratio
1,WPPG,≤ 0.25
2,TWQM,≤ 0.25
3,SKDV,≤ 0.25
4,DFFP,≤ 0.25
5,RCRF,≤ 0.25
6,KVKE,≤ 0.25
7,WKRT,≤ 0.25
8,WTMD,≤ 0.25
9,SPFC,≤ 0.25
10,NWFG,≤ 0.25
11,IYAF,≤ 0.25
12,LLHV,≤ 0.25
13,DPEF,≤ 0.25
14,GFYS,≤ 0.25
15,QFTW,≤ 0.25
16,TLFS,≤ 0.25
17,FNID,≤ 0.25
18,WHGH,≤ 0.25
19,EGWM,≤ 0.25
20,TEDG,≤ 0.25
21,TIVC,≤ 0.25
22,VPRD,≤ 0.25
23,NLHV,≤ 0.25
24,AVCL,10.2

row,Variant,enrichment ratio
1,LEEM,≤ 0.25
2,ITPT,≤ 0.25
3,PQYT,≤ 0.25
4,FMDW,≤ 0.25
5,EPWH,≤ 0.25
6,VNAV,1.08
7,EEEY,≤ 0.25
8,LQDN,≤ 0.25
9,HEIM,≤ 0.25
10,MEDC,≤ 0.25
11,NMCI,≤ 0.25
12,SIAC,13
13,GWHY,≤ 0.25
14,SEAQ,13.7
15,DPHE,≤ 0.25
16,GSDG,≤ 0.25
17,NKCR,≤ 0.25
18,RVWV,≤ 0.25
